Measurements taken from PubChem BioAssay AID1347165 (National Center for Advancing Translational Sciences (NCATS), 2019).
Among all 220,000 compounds or so, about 5,700 (2.6%) were called active. The inconclusive results got no clear call from the source; some entries with a clear call stand among them for comparison. The call rests on the fitted dose curve; in most records, active means well fitted inhibition curve with a large enough effect; inconclusive means small, poorly fitted or top-dose-only effect; inactive means no such curve, though single readings can be large or run the other way. Where the call is inconclusive, the potency comes from a doubtful curve fit.

biological target: Lysine-specific demethylase 5B (Homo sapiens) (UniProt Q9UGL1); assay: Primary screen for KDM5B Histone Demethylases FDH-coupled qHTS; conditions: FDH-coupled NADH fluorescence (FDH is formaldehyde dehydrogenase); activity change, negative = inhibition: at 57.7 µM (top of the series) unless noted; further: nearly all actives have a fitted effect of over 70% in size; on activity change, negative = inhibition: 0% is about no effect
Procedure, shortened: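 Here, H3K4me3 peptide (12.5 µM in substrate mix) is demethylated by KDM5BΔAP, 200 nM final, after 10 min compound exposure. Formaldehyde product is coupled through FDH (0.25 U/mL in mix) to NADH fluorescence; 30-min ΔRFU feeds dose-response curves.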
Potency means the concentration at half of the fitted maximal effect; tags describe the fitted curve by direction and shape.

UniProt Q9UGL1, sequence (Q9UGL1 whole entry, looked up): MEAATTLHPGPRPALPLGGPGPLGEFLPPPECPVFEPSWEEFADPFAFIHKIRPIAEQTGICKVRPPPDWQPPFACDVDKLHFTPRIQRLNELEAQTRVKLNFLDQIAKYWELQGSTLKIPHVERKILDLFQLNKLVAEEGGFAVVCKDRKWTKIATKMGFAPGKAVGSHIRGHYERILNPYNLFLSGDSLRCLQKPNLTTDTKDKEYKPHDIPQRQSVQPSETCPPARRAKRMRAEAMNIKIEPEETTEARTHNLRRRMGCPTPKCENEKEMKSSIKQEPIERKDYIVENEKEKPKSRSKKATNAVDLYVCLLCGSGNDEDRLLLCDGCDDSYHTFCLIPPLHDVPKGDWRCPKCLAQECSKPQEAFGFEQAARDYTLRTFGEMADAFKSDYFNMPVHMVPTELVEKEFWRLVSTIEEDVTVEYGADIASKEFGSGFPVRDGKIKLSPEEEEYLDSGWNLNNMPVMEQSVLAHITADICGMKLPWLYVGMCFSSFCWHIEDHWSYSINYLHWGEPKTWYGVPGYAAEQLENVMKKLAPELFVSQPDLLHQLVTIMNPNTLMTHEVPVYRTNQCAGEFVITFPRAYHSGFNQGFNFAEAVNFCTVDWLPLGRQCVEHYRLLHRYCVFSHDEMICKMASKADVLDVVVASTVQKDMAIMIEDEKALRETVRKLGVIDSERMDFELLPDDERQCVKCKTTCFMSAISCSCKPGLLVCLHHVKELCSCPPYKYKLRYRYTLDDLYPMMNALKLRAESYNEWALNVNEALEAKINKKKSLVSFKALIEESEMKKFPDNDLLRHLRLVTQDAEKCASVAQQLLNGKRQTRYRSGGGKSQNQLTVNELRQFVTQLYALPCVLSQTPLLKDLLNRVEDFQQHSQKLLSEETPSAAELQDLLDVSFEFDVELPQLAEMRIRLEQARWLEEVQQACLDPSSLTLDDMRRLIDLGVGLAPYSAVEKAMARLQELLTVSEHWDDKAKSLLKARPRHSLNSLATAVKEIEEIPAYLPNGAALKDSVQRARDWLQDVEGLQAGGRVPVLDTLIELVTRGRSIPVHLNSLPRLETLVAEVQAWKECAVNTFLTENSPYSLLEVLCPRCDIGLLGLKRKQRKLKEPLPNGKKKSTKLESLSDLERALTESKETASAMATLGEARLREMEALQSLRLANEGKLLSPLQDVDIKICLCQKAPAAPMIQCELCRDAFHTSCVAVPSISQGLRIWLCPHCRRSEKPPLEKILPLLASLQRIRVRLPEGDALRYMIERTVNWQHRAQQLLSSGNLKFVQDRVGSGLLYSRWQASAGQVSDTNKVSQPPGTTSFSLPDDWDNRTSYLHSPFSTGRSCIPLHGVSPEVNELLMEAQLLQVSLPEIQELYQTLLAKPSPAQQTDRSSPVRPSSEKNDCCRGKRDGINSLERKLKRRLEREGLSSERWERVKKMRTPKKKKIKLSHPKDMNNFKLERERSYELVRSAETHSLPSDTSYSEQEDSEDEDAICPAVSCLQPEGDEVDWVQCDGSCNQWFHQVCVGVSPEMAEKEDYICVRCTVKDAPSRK

Compound	Potency	activity change, negative = inhibition
Cc1cc(N2CCCCC2)nc2ccc(NC(=O)c3cccc(Cl)c3)cc12	inconclusive: 35.5 µM [inhibitor, single point]	–
COc1ccc(-n2c(=O)c3c4c(sc3n(Cc3ccc(F)cc3)c2=O)CCCC4)c(OC)c1	inconclusive: 25.1 µM [inhibitor, partial curve, poor fit]	–
COc1cccc(CNC(=O)c2cc3c(s2)-c2ccccc2OC3)c1	inconclusive: 39.8 µM [inhibitor, partial curve, poor fit]	–
COc1ccccc1CN1CCC(N2CC3CCCN3C2=O)CC1 (stereo not drawn)	inconclusive: 11.2 µM [inhibitor, single point]	–
COc1ccc(OC)c(NC(=O)Nc2cc(-c3nc4ccccc4o3)ccc2OC)c1	–	inactive: -1.43%
Cc1ccc(C#N)c(N2CCCC(c3n[nH]c(=O)n3-c3ccccc3)C2)n1 (stereo not drawn)	active: 31.6 µM	–
COc1ccc(NC(=O)c2cc(C3CC3)nc3c2c(C)nn3-c2ccccc2)cc1	inconclusive: 2.51 µM [inhibitor, partial curve, poor fit]	–
Cc1cc(C)nc(SCCN2CCCCC2)n1	inconclusive: 25.1 µM [inhibitor, partial curve, poor fit]	–
CC1(C)CC(N2CCN(Cc3ccccc3)CC2)=CC(=[N+]2CCCCC2)C1	inconclusive: 39.8 µM [inhibitor, single point]	–
COc1ccc(-c2nc(-c3ccccc3)nc3c2CN(C(=O)C2CCCC2)CC3)cc1	–	inactive: 7.68%
CCN(CC)C(=O)Oc1ccc2c(C)c(-c3ccc(OC)cc3)c(=O)oc2c1	inconclusive: 28.2 µM [inhibitor, partial curve, poor fit]	–
Cc1nnc2ccc(SCC(=O)Nc3ccccc3)nn12	inconclusive: 17.8 µM [inhibitor, partial curve, poor fit]	–
O=C(c1ccccc1F)N1CCC(c2n[nH]c(=O)n2-c2ccccc2)CC1	–	inactive: 24.9%
Cc1c(-c2ccccc2)oc2c(C(=O)OCC(=O)Nc3cc(Cl)ccc3F)cccc2c1=O	–	inactive: 5.58%
Cc1ccc(C(C)NC(=O)c2ccc3c(c2)OCCO3)c(C)c1 (stereo not drawn)	–	inactive: 25.3%
OCCNC(=S)Nc1ccc(Br)cc1	–	inactive: -9.92%
O=C(Nc1ccc(OC(F)(F)F)cc1)N1CCOC[C@H](Oc2ccccc2)C1	inconclusive: 56.2 µM [inhibitor, single point]	–
O=C(CSc1nnc(-c2cccc(S(=O)(=O)N3CCCC3)c2)o1)c1ccccc1	–	inactive: -5.3%
O=C(CC1C(=O)NCCN1Cc1cccc(Oc2ccccc2)c1)NC1CCOCC1 (stereo not drawn)	inconclusive: 31.6 µM [inhibitor, partial curve, poor fit]	–
CCN1C(=O)COC[C@@H]1[C@H](O)c1ccc(NC(=O)CCc2ccccc2)cc1	–	inactive: -11.5% [at 86.2 µM]
NC(=O)c1ccccc1NCC(=O)Nc1ccc(OC(F)(F)F)cc1	inconclusive: 25.1 µM [inhibitor, partial curve, poor fit]	–
Cc1ccc(NC(=O)NCCc2c(C)nn(C)c2C)cc1Cl	inconclusive: 2.24 µM [inhibitor, full curve, poor fit]	–

Compound	Potency	activity change, negative = inhibition
COc1ccc(Cc2nnc(/C=C/c3cccc4ccccc34)o2)cc1	inconclusive: 22.4 µM [inhibitor, partial curve, poor fit]	–
Cc1ccc(-n2nc(C)c([C@@H]3C=C[C@@H](NCc4ccc(F)cc4)C3)c2C)cc1Cl	inconclusive: 31.6 µM [inhibitor, single point]	–
COC(CNC(=O)CCc1c(C)nc2c(c(C)nn2-c2ccc(C)cc2)c1C)OC	inconclusive: 28.2 µM [inhibitor, partial curve, poor fit]	–
COCC1CCN(C(=O)[C@@H]2CN(c3cnccn3)C[C@H]2COC)CC1	active: 25.1 µM	–
Nc1nccc(/C=C/c2c(Cl)cccc2Cl)n1	inconclusive: 39.8 µM [inhibitor, partial curve, poor fit]	–
CCCCc1ccc(NC(=O)c2cc3c(=O)n4ccccc4nc3s2)cc1	inconclusive: 4.47 µM [inhibitor, partial curve, poor fit]	–
CCOc1ccc(CN2CCC(N(C)Cc3ccccc3)CC2)cc1	inconclusive: 31.6 µM [inhibitor, partial curve, poor fit]	–
COc1ccc(NC(=O)Cn2nc(-c3ccc(C)cc3)c3ccccc3c2=O)cc1	–	inactive: 10.8%
C/C(=N\Nc1ccc2nncn2n1)c1ccccn1	inconclusive: 8.91 µM [inhibitor, partial curve, poor fit]	–
CC(=O)Nc1sc(-c2ccc(Cl)cc2)nc1-c1ccccc1	inconclusive: 31.6 µM [inhibitor, single point]	–
CCC(C)(CNC(=O)NCc1nc(C)cs1)N1CCOCC1 (stereo not drawn)	–	inactive: -11%
CCOCC(=O)N[C@@H]1c2ccccc2C2(CCNCC2)[C@H]1OC	inconclusive: 28.2 µM [inhibitor, single point]	–
N#Cc1ccc(CN2CCCc3ccccc32)cc1	inconclusive: 20 µM [inhibitor, partial curve, poor fit]	–
Cc1cc2n(n1)C(c1cc(C(C)(C)C)c(O)cc1O)Nc1ccccc1-2 (stereo not drawn)	inconclusive: 35.5 µM [inhibitor, partial curve, poor fit]	–
N#C/C(=C/c1ccc(F)cc1)C(=O)Nc1cccc2ncccc12	inconclusive: 28.2 µM [inhibitor, partial curve, poor fit]	–
COc1ccc(OCc2nnc3sc(-c4ccccn4)nn23)cc1	–	inactive: 9.22%
N#Cc1cccc(-c2cn3c(n2)N(C(=O)CC2CCNCC2)CCC3)c1	inconclusive: 31.6 µM [inhibitor, partial curve, poor fit]	–
COc1ccc(-c2cc3ccc(O)c(CN4CCOCC4)c3oc2=O)cc1OC	inconclusive: 28.2 µM [inhibitor, partial curve, poor fit]	–
CC(C)(C)C(=O)NCCCC(=O)NCc1ccco1	–	inactive: 9.59%
c1ccc(CN2CCC[C@H]2c2nc(-c3ccc(N4CCOCC4)nc3)no2)cc1	active: 31.6 µM	–
CCNC(=O)[C@@H]1C[C@H](NC(=O)c2ccccc2)CN1Cc1scnc1C	inconclusive: 12.6 µM [inhibitor, partial curve]	–
